Measured values reported in publication PMC6407677.
Results are given in words; binding and its absence hold for the method and conditions named. Binding seen in cells or lysates may run through a third protein. Some entries that bind do so weakly or less than the wild type. For some assays here: Tags and fused reporters may be left off the sequences shown. Each block holds one molecule with its values, some of them ahead of it.

Sequences of proteins named here, by UniProt entry; tags and fusion partners are left off.
UniProt Q15208: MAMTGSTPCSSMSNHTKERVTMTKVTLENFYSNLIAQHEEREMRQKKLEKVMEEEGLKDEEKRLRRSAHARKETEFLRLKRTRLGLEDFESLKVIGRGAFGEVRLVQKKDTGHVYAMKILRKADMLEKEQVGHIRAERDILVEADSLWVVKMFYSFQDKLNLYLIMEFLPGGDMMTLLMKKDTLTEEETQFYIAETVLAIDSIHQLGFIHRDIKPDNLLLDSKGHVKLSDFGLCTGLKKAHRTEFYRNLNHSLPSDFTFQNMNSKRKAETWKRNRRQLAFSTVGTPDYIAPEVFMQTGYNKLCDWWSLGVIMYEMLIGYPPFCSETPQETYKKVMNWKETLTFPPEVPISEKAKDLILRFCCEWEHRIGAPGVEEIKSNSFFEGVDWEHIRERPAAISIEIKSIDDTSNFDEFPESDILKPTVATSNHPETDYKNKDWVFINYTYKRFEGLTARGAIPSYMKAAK
UniProt Q9GZV5: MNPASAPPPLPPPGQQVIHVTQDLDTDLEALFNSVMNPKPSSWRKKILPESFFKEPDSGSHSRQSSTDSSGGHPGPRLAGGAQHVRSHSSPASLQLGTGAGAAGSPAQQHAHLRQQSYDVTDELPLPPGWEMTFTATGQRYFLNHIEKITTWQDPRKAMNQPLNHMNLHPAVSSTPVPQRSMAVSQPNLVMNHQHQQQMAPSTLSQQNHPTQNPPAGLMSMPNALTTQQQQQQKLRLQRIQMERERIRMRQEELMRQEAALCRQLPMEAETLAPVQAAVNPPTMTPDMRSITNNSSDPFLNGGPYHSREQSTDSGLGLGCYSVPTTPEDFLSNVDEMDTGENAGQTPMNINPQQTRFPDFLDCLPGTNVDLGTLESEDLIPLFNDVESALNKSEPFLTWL

Legend:
GST-POPX2 (human) = molecular target: T1, GST-POPX2 (human) (UniProt P49593); experiment: co-IP; lysates of HEK293 cells co-expressing GST-POPX2 and the Flag- or Myc-tagged partner; 1 mg lysate on glutathione sepharose beads overnight at 4°C; 25 mM Tris pH 7.5, 150 mM NaCl, 0.5% Triton-X; Western blot with anti-Flag or anti-Myc
T1 sequence: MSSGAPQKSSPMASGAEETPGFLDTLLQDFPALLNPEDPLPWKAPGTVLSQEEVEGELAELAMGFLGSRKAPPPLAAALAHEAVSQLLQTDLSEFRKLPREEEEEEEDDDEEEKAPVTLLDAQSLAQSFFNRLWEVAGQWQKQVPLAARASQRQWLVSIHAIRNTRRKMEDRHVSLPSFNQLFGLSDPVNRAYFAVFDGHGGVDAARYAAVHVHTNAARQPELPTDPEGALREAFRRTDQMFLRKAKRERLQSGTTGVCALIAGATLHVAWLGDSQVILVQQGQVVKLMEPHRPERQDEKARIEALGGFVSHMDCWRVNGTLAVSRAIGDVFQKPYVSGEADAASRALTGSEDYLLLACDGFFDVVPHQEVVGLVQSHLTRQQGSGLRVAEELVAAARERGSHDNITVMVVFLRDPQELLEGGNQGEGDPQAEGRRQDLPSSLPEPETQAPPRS

[1] = molecular target: T2, endogenous LATS1 (human (endogenous in HEK293)) (UniProt O95835); experiment: co-IP; endogenous proteins of HEK293 lysate; primary antibody 1:100 overnight at 4°C, Protein G magnetic beads; 25 mM Tris pH 7.5, 150 mM NaCl, 0.5% Triton-X; Western blot
T2 sequence: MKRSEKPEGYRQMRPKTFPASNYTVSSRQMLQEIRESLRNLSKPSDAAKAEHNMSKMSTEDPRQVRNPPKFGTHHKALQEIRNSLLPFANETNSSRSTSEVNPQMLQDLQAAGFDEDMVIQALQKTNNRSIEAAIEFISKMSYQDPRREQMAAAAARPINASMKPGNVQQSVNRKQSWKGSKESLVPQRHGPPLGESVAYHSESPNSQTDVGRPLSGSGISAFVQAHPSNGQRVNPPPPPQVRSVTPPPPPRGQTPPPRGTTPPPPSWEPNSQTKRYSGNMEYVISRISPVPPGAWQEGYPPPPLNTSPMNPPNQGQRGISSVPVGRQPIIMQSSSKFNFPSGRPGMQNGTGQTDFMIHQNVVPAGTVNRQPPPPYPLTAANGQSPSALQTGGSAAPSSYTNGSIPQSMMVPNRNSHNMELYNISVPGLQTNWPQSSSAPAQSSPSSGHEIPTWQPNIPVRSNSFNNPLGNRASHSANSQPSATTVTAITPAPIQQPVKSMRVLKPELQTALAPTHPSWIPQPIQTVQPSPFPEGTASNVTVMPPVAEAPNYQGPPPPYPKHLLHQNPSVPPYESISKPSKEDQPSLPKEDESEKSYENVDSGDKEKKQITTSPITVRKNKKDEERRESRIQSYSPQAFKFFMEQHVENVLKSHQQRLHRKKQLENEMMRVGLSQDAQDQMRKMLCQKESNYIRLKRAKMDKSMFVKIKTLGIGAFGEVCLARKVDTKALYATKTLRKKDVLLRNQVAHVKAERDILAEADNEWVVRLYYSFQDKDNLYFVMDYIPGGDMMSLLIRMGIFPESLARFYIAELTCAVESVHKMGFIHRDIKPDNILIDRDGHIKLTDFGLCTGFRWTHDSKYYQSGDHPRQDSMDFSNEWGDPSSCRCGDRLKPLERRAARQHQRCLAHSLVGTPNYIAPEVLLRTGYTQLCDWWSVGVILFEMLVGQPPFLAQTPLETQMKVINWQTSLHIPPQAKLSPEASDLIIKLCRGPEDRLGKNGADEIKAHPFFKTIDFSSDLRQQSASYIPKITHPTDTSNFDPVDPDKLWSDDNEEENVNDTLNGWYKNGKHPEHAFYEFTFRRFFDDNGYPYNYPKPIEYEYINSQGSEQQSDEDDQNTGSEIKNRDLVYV

[2] = molecular target: T3, endogenous MST1 (human (endogenous in HEK293)) (UniProt Q13043); experiment: as above
T3 sequence: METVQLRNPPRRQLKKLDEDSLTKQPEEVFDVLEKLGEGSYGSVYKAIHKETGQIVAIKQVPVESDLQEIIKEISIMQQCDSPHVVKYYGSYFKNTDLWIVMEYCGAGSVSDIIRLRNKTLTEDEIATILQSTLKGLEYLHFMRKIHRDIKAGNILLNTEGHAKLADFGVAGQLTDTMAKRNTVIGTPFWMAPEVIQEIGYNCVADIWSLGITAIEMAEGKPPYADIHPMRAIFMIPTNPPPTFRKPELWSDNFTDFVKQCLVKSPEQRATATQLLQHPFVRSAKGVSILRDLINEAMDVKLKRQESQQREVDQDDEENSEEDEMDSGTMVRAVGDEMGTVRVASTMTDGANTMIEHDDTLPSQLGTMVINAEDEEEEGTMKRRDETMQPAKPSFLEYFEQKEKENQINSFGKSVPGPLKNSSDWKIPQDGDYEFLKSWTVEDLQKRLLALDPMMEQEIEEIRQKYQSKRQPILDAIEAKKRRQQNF

binding (GST-POPX2 (human)): binds
Molecule: Flag-NDR1 (from UniProt Q15208 1-465) (enzyme)

binding (GST-POPX2 (human)): no binding
Molecule: Flag-YAP (from UniProt P46937-2 1-488)

binding (GST-POPX2 (human)): no binding
Molecule: Flag-TAZ (from UniProt Q9GZV5 1-400)

binding [1]: binds
binding [2]: binds
B1: endogenous POPX2 (enzyme, UniProt P49593 1-454)
chain: T1 sequence
